According to PubChem BioAssay AID686979 (National Center for Advancing Translational Sciences (NCATS), 2013):
The campaign covered roughly 420,000 compounds. About 50,000 (12%) were called active. Inconclusive means that the source gave no clear call. Such entries were picked first, then a sample of the others. Calls follow the shape of the dose curve; as a rule, active = well fitted inhibition curve with a large enough effect; inconclusive = small, poorly fitted or top-dose-only effect; inactive = flat fitted curve, though single readings scatter. No potency is given beside an inconclusive call; the fits are too rough.

Experiment: qHTS for Inhibitors of human tyrosyl-DNA phosphodiesterase 1 (TDP1): qHTS in cells in presence of CPT; also: nearly all actives have a fitted effect of over 55% in size
Details: chicken DT40 Tdp1-/-;hTDP1 cells + 20 nM CPT, ATP luminescence, 48 h; activity change, negative = growth inhibition: at 46.2 µM (top of the series) unless noted
How it was run: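 Chicken DT40 Tdp1-/- cells complemented with human TDP1, 400 cells/well, exposed to compounds plus 20 nM camptothecin for at least 48 h at 37 C; viability read as ATP content by CellTiter-Glo luminescence.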
% is scaled to controls: 0 for no effect and ±100 for the full control effect; potency is read from the fitted curve at half-maximal effect; tags tell the direction and shape of the fitted curve.

Compound | activity change, negative = growth inhibition | Potency
Nc1nc(SCC(=O)Nc2cccc(C(F)(F)F)c2)n[nH]1 | inactive: -14.1% | 
O=S(=O)(NCCCc1ccccc1)c1cccc2nsnc12 | inconclusive: -31.7% [inhibitor] | 
CCc1ccccc1NC(=O)CN(C)C(=O)CSc1nn(-c2ccccc2)c(=S)s1 | inactive: 1.73% | 
O=[N+]([O-])c1ccc(N2CCN(c3ccc(O)cc3)CC2)cn1 |  | inconclusive [inhibitor, single point]
O=C(NCc1ccc2c(c1)OCO2)c1ccc(Cl)c(S(=O)(=O)N2CCOCC2)c1 |  | inconclusive [inhibitor, partial curve]
COc1ccc(C(=O)Cn2c(NCCO)nc3ccccc32)cc1OC | inactive: -11.1% | 
CC1Cc2cc(S(=O)(=O)N3CCC(C(=O)N(C)Cc4ccco4)CC3)ccc2N1C(=O)C1CCC1 (centres undefined) |  | inconclusive [inhibitor, single point]
CCc1ccccc1NC(=O)C(C)n1nc([N+](=O)[O-])c(Br)c1C (centres undefined) |  | inconclusive [inhibitor, single point]
O=C(Nc1nnc(-c2ccco2)o1)c1ccc(Cl)s1 |  | active: 20.6 µM
CCc1ccc(-c2csc(-c3c[nH]c4ccccc34)n2)cc1 |  | inconclusive [inhibitor, single point]
O=C(O)CC(NC(=O)Nc1ccccc1)c1ccc(OC2CCCC2)cc1 (centres undefined) | inactive: 11.3% | 
COc1cc(C(=O)Nc2ccc(S(=O)(=O)N3CCOCC3)cc2)c([N+](=O)[O-])cc1OC | inactive: -25.2% | 
Cc1noc(C)c1-c1ccc2ncnc(N(C)C)c2c1 |  | inconclusive [inhibitor, partial curve]
C=CC(=O)N(CCC)C(c1ccccc1)c1ccccc1OC (centres undefined) |  | active: 16.4 µM
Cc1ccccc1Cn1cc(CCC(=O)N2CCOCC2)c2ccccc21 |  | inconclusive [inhibitor, single point]
Cc1cccc(C)c1N=C1NN=C(c2ccccc2F)CS1 |  | active: 20.6 µM
OC[C@@H]1CN(Cc2ccncc2)C[C@H](n2cnc3c(N4CCOCC4)ncnc32)O1 |  | inconclusive [inhibitor, single point]
O=C(O)C1C2CCC(C2)C1C(=O)Nc1cccc([N+](=O)[O-])c1 (centres undefined) | inactive: 7.09% | 
Cn1cnnc1SCC(=O)N1CCc2ccccc2C1 | inactive: -15.4% | 
CCCSc1nc(=O)n2cccc(C)c2n1 | inactive: -10.8% | 
Cc1ccc2[nH]cc(C(O)c3c[nH]c4ccc(C)cc34)c2c1 |  | inconclusive [inhibitor, single point]
Cc1csc(NC(=O)/C=C/c2ccc3c(c2)OCO3)n1 |  | inconclusive [inhibitor, single point]
O=C(c1ccco1)N1CCN(C(=O)c2ccccc2OC(=O)C23CC4CC(CC(C4)C2)C3)CC1 |  | inconclusive [inhibitor, single point]
CCN(CC)S(=O)(=O)c1ccc(N2CCOCC2)c(NC(=O)COc2ccccc2)c1 |  | inconclusive [inhibitor, single point]
COc1ccnc(CSC(N)=Nc2ccccc2C(F)(F)F)c1 |  | active: 25.9 µM

Compound | activity change, negative = growth inhibition | Potency
COC(=O)c1c(-c2ccccc2)csc1NC(=O)c1ccco1 | inactive: 2.61% | 
COc1ccc(-c2nc(CCNC(=O)c3cccs3)cs2)cc1 |  | active: 16.4 µM
Oc1ccc(C2=CSC3=NCCN23)cc1O | inactive: -3.55% | 
CC(=O)Nc1cccc(NC(=O)Cc2nc(-c3ccccc3)sc2-c2ccc(C)cc2)c1 |  | inconclusive [inhibitor, single point]
CCOC(=O)c1ccc(NC(=O)CC2Sc3ccc(C(F)(F)F)cc3NC2=O)cc1 (centres undefined) |  | inconclusive [inhibitor, partial curve]
O=C(c1ccc(S(=O)(=O)Cc2ccccc2Cl)c([N+](=O)[O-])c1)N1CCN(c2ccccn2)CC1 |  | active: 3.66 µM
O=c1onc(-c2ccc(Cl)cc2Cl)n1-c1cccnc1 | inactive: 4.53% | 
O=C(N/N=C/c1ccc2c(c1)OCO2)C1COc2ccccc2O1 (centres undefined) |  | inconclusive [inhibitor, single point]
FC(F)(F)c1cc(CCN2C(=S)NC[C@@H]2CC2CCCCC2)cc(C(F)(F)F)c1 |  | inconclusive [inhibitor, single point]
COc1ccc(C(=O)NC(=S)N2CCNC(=O)C2CC(=O)OC(C)C)cc1 (centres undefined) | inactive: -7.41% | 
CCCCC(CC)CNC(=O)CN(C)S(=O)(=O)c1ccc2c(c1)c(=O)n(C)c(=O)n2C (centres undefined) |  | inconclusive [inhibitor, single point]
COc1cc(NC(=O)CCn2c(=S)[nH]c3ccccc3c2=O)cc(OC)c1OC | inactive: -3.34% | 
O=C(NCc1ccccc1)c1onc(CSc2ccc(Cl)cc2)c1C(=O)NCC1CC1 |  | inconclusive [inhibitor, single point]
COc1ccc(NC(=O)CSC2=Nc3ccccc3C3=NC(CCC(=O)NCc4ccc(F)cc4)C(=O)N23)cc1Cl (centres undefined) |  | inconclusive [inhibitor, single point]
O=C(CN1C(=O)NC(c2ccc(F)cc2)C1=O)Nc1ccc2c(c1)OCCO2 (centres undefined) | inactive: -3.91% | 
CCOC(=O)N1CCC(N2Cc3cccc(C(=O)NCc4ccccc4OC)c3C2=O)CC1 |  | inconclusive [inhibitor, single point]
Oc1ccc(/C=N/Nc2cc(N3CCCC3)nc(N3CCCC3)n2)cc1 |  | inconclusive [inhibitor, single point]
CC1(C)CC2CC(C)(CN2C(=O)COC(=O)c2cncc(Br)c2)C1 (centres undefined) | inactive: -16.5% | 
CCCNC(=O)NC(=O)CSc1nncs1 | inactive: -0.92% | 
COc1ccccc1Nc1ncnc2ccc(C)cc12 | inactive: -3.56% | 
Cc1nn(C)c2c1c(-c1ccccc1)cc(=O)n2Cc1ccccc1Cl |  | inconclusive [inhibitor, single point]
Cc1cccc(CN2CCCC(C(=O)c3ccc4c5c(cccc35)CC4)C2)n1 (centres undefined) |  | active: 16.4 µM
O=C1CC(SC(=Nc2ccccc2)Nc2ccccc2)C(=O)N1c1ccc(Cl)cc1 (centres undefined) |  | inconclusive [inhibitor, single point]
CCc1ccc(OCCNC(=O)c2ccccc2SCc2ccc(F)cc2)cc1 |  | inconclusive [inhibitor, single point]
COc1ccc(CCNC(=O)Cn2nc(C)n3c(cc4cc(F)ccc43)c2=O)cc1OC | inactive: 4.34% | 

Compound | activity change, negative = growth inhibition | Potency
CC(C)CCNC(=O)C(c1cccnc1)N(Cc1ccccc1)C(=O)Cn1nnc2ccccc21 (centres undefined) | inactive: -4.23% | 
C=Cc1ccc(Cn2nc(-c3ccccc3)ccc2=O)cc1 |  | inconclusive [inhibitor, single point]
CC1(C)CC(=O)C2=C(C1)OC1=C(C(=O)CC(C)(C)C1)C2c1cccc([N+](=O)[O-])c1 |  | inconclusive [inhibitor, single point]
Cc1cccc(-n2c(-c3ccccc3)c[nH]c2=S)c1C |  | inconclusive [inhibitor, single point]
O=C(CN1C(=O)C2C3C=CC(C3)C2C1=O)Nc1ccc(S(=O)(=O)N2CCCCC2)cc1 (centres undefined) | inactive: 15.3% | 
COc1ccc(S(=O)(=O)N2CCN(C(=O)c3cc(-c4ccccc4OC)n[nH]3)CC2)cc1 |  | inconclusive [inhibitor, single point]
O=S(=O)(c1ccccc1)N1CCN(c2cccc(Cl)c2)CC1 | inactive: -6.1% | 
COc1ccccc1NS(=O)(=O)c1ccc2oc(SCC(=O)N3CCNC3=O)nc2c1 |  | active: 3.66 µM
Cc1ccc(Nc2nc(N)nc(CN3CCN(Cc4ccc5c(c4)OCO5)CC3)n2)cc1 |  | active: 18.4 µM
CCOc1ccc(C2c3[nH]c4ccccc4c3CCN2Cc2cccn2-c2ncccn2)cc1 (centres undefined) |  | active: 20.6 µM
Cc1cccc(C)c1NC(=O)CN(C)C(=O)c1ccccc1C(=O)N(C)Cc1ccccc1 | inconclusive: -38.1% [inhibitor] | 
CCC(C)(C)n1nnnc1C(c1ccncc1)N1CCC(Cc2ccccc2)CC1 (centres undefined) |  | inconclusive [inhibitor, partial curve]
O=C(NN1CCOCC1)c1ccc(F)cc1 | inactive: -6.87% | 
Cc1ccc(C)c(N2CCN(C(=O)c3cc4c(=O)n(Cc5ccco5)ccc4nc3C)CC2)c1 |  | inconclusive [inhibitor, single point]
COc1ccc(Oc2cn[nH]c2-c2ccc(OCC(=O)NN)cc2O)cc1 |  | inconclusive [inhibitor, single point]
COc1cccc(C(=O)Nc2cccc(NC(=O)c3ccc(Cl)cc3Cl)c2)c1 |  | inconclusive [inhibitor, single point]
O=S(=O)(NCc1c(Cl)cccc1Oc1ccccc1)c1ccccc1 |  | inconclusive [inhibitor, partial curve]
CC(NC(=O)c1cccc(Cl)c1)C1CC2CCC1C2 (centres undefined) | inactive: -2.16% | 
COc1ccccc1CN1CCc2c([nH]c3ccccc23)C1 |  | inconclusive [inhibitor, single point]
COc1ccc(C(=O)NNC(=O)CSc2nnnn2-c2cc(OC)cc(OC)c2)cc1 | inactive: -7.06% | 
Cn1ccc2c(/C=C/c3ccc(F)cc3)cc3c(c21)C1CCC3C1 (centres undefined) | inactive: -16.3% | 
O=c1[nH]c2cc3c(cc2cc1CN(Cc1ccccc1)Cc1nnnn1Cc1ccco1)OCCO3 |  | inconclusive [inhibitor, partial curve]
COC(=O)c1ccccc1NC(=O)c1ccc(COc2ccc(C)c(C)c2)o1 |  | inconclusive [inhibitor, partial curve, poor fit]
Cc1ccc2c(c1)S/C(=C/c1ccc[n+](C)c1)N2CCO |  | active: 3.26 µM
